# Some of the results follow. Binding of human antibodies (heavy:light variable regions, tested as scFv in one mRNA-display pool) to influenza hemagglutinin, with or without the stem antibody CR9114 bound first. Score = (mean enrichment − median) / interquartile range of that screen; higher = more enriched, 0 = typical non-binder. Active = above the paper's cut-off per screen: stems 28; unblocked H1 Solomon Islands 5, H1 Michigan 3, H3 5, H5 19, H7 2.85, both B 5; blocked 9, 7, H5 10, H7 10, B Phuket 10, B Lee 11.5. Scores are scaled within each screen and are no affinities; replicates correlate at about 0.6 to 0.9, and antibodies rare in the pool are noisier.
# B1: 014-10-3F03 (protein)
# chain 1: QVQLVESGGGVVQPGRSLRLSCAASGFTFSNHGMHWVRQAPGKGLEWVAVISFDGRKEYYANSVTGRFTISRDNSKNTLYLQLNSLRPEDTAFYYCAKDSYNGNREGGMDVWGQGTTVTVSS
# chain 2: QSALTQPRSVSGSPGQSVTISCTGTSSDVGYYNYVSWYQQEPGKATKLMIYEVTKRPSGVPDRFSGSKSGNTASLTISGLQGEDEADYYCFSYAGRYTWVFGGGTKLTVL
# B2: W85-3B05 (protein)
# chain 1: EVQLMESGGGVVHPGRSLRLSCAASGFTFSSYAMHWVRQAPGKGLEWVAIISHDGSNKYYADSLKGRFTISRENSRSMVYLHVSSLRTEDTAVYYCARDLCSTSSCYVDHWGQGTLVTVSS
# chain 2: DIQMTQSPSSLSASVGDRVTIICRASQGVSNWLAWYQQKPGKAPKSLIYAASALQSGVPSRFSGSGSGTEFSLTISNLQPEDFATYYCQQYNSYPLTFGGGTKVEIK
# B3: K77-1E03 (protein)
# chain 1: LVQLQESGPGLVKPSETLSLTCTVSDGSISNYYWSWIRQPPGKGLEWIGYIFYSGSTNYNPSLKSRVSISVDTSKNQFSLKLRSVTAADTAVYYCARRQGWFHNAFDIWGQGTMVIVSS
# chain 2: DIQMTQSPSSLSASVGDRVTITCRASQSIYSYLSWYQQKPGKAPKLLIYAASSLQSGVPSRFSGSGSGTDFTLTISSLQPEDFASYYCQQSYTTPRTFGQGTKLEIK
# B4: 024-10-4C05 (protein)
# chain 1: QLQLQESGPGLVKPSETLPLICTVSGGAIRFSSYYWGWIRQAPGKGLEWIATIHYSGTAHYNPSLKSRLTISVDTSTNQFSLRLSSVTAADTAVYYCARHRGYCSGGGCFGEVYFDSWGQGALVTVSS
# chain 2: DIQMTQSPSSLSASVGDRVTITCRASQNIRTYLSWYQQKPGGAPKLLIYAASSLQSGVPLRFSGSGSGTDFTLTINGLQPEDFATYYCQQSYTTIVFGGGTKVEIK
# B5: W85-1C01 (protein)
# chain 1: QVQLQESGPRLVKPSETLSLTCTVSGGSISTTNYYWGWIRQTPGKGLEYIGSVSYSGKPYYNPSLRGRVTISVDTSKTQFSLTVISVTAADTAVYYCTRQAEGGWYGGFSNSWGQGTLVTVSS
# chain 2: DIQMTQSPSTLSASVGDRVTITCRASQSISSWLAWYQQKAGKAPKLLIYKASTLEVGVPSRFSGRGSGTEFTLTISSLQPDDFATYYCQQYDSYLTFGGGTKVEIK
# B6: 045-09-1F04 (protein)
# chain 1: EVQLVESGGGLVQPGGSLRLSCAGSGFSFSSYSMNWVRQAQGRGLEWVSYISSYSGTIYYADSVKGRFTISRDNAKNSLYLQMNSLTADDTAVYYCARDDDSNDYNQDRYYYYGMDVWGQGTTVTVSS
# chain 2: EIVMTQSPATLSVSPGERATLSCRASQSVSSNLAWYQQKPGQAPRLLIYGASTRATGIPARFSGSGSGTEFTLTISSLQSEDFALYYCQQYDNWPPITFGQGTRLEIK
# B7: 024-10-4C04 (protein)
# chain 1: EVQLVQSGAEVKKPGESLKISCKGSEYSFSNYWIGWVRQMSGKGLEWMGIIYPDDSDTRYSPSFQGQVTISADKSISTAYLQWSSLKASDTAMYYCVRHSDAHSTNPDPPFYFRFAMDVWGQGTTVTVSS
# chain 2: QSVLTQPPSVSGAPGQRVIISCTGNNSNIGAGHDVHWYQQVPGTAPKLLIFGNKNRPSGVPDRFSGSKSGSSASLAITGLQAADEADYYCQSYDNSLSLSHYWVFGGGTKVTVL
# B8: W85-1D12 (protein)
# chain 1: QVQLQESGPGLVQPSETLSLTCTVSGGSSSGHYWSWIRQPPGKGLEWMGHVYNSGSTNYNPSLKSRVTISVDTSKSQFSLKLTAVTAADTAVYYCARGAGYDYAWGSYRWNYFDNWGQGTPVTVSS
# chain 2: DIQMTQSPSSLSASVGDRVTITCQASQDISNYLNWYQQKPGKAPRVLIYDASNLETWVPSRFTGRGSGTDFSVSISSLQPEDIATYYCQQYHNFPYTFGQGTNLESK
# B9: C1-2-2F04 (protein)
# chain 1: VQLVESGGGVVQPGGSLRLSCAASGFIFTDYVMHWLRLTPGKGLEWVAIISFDGSNTYYTDSVKGRFTISRDQSANTLYLLMNSLRPDDTAVYYCVRGQDSSHYFDAWGQGALVTVSS
# chain 2: EIVMTQSPATLSVSPGERATLSCRASQDIGTNLAWYQQKPGLAPRLLIYGVSTRATGIPARFSGSGSETEFTLTISIMQSEDCAVYFCQQYDFWPTFGQGTKVEIK
# B10: R95-2E07 (protein)
# chain 1: EVQLVESGGGLVQPGGSLRLSCAASGFPFSTYWMYWVRQAPGKGLVSVSRINSDGSGTSYADSVEGRFTISRDNAKNTLYFQMNSLRAEDTAVYYCARRFGSGWTEWYFDLWGRGTLVTVSS
# chain 2: DIQMTQSPSTLSASVGDKVTITCRASQSINRWLAWYQQKPGKAPKLLIYRASSLESGVPSRFSGSGSGTEFTLTISSLQPDDFATYFCQHYEGYSWTFGQGTKVDIK
# B11: W85-1B04 (protein)
# chain 1: LVQLQQWGAGLLKPSETLSLTCAVYGGSFSGYYWSWIRQPPGKGLEWIGEINHSGSSNYKPSLKSRVAISVDTSKNQFSLKLSSVTAADTAVYYCARGGRDGYNYTPFRAFDIWGQGTMVTVSS
# chain 2: SYELTQPPSVSLSPGQTASITCSGDKLGDKYVCWYQQKPGQSPVLVIYADSKRPSGIPERFSGSNSGNTATLTISGTQAMDEADYYCQAWDTSTAIFGGGTRLTV
# B12: AG1-E04 (protein)
# chain 1: VQLVESGGGVVQPGRSLRLSCSASGFTFRSFAMHWVRQAPGRGLEWVAVMWIDGRGKDYADSVKGRFTISRDNSKSTLYLQMNNLRAEDTAVYYCARDQATKGLKPWGQGTLVTVSS
# chain 2: DIQMTQSPSSLSASVGDKITITCRASQSISTYLNWYQQKPGTAPKLLIYAASSLQSGVPSRFSGSGSGTGFTLTISSLQPEDFATYYCQQSYSTPYTFGQGTKVEIK
# Target: Influenza A H1N1 A/Michigan/45/2015 hemagglutinin ectodomain
# Assay: mRNA display binding score; higher = more enriched on the antigen
# Conditions: antigen blocked with: 2 µM CR9114 IgG
# Experimental: (§1)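 A pool of natively paired antibodies, displayed as scFv on mRNA, was selected once on antigen-coated beads and sequenced before and after; two replicates.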
row,Binder,mRNA display binding score
1,B1,inactive: 5.94
2,B2,inactive: -0.628
3,B3,inactive: -0.165
4,B4,inactive: -0.0779
5,B5,inactive: 0.583
6,B6,inactive: -0.21
7,B7,inactive: 6.78
8,B8,inactive: -0.44
9,B9,inactive: 0.417
10,B10,inactive: -0.575
11,B11,inactive: -0.245
12,B12,inactive: -0.455

# Same assay, conditions: antigen blocked with: nothing
row,Binder,mRNA display binding score
1,B1,inactive: -0.43
2,B2,inactive: -0.635
3,B3,inactive: -0.545
4,B4,inactive: -0.244
5,B5,inactive: -0.205
6,B6,inactive: -0.208
7,B7,inactive: -0.0715
8,B8,inactive: -0.587
9,B9,inactive: 0.0517
10,B10,inactive: -0.44
11,B11,inactive: -0.58
12,B12,inactive: -0.588

# Target: Influenza A H1N1 A/Solomon Islands/3/2006 hemagglutinin ectodomain
# Assay: as above
# Conditions: antigen blocked with: 2 µM CR9114 IgG
# Experimental: as §1
row,Binder,mRNA display binding score
1,B1,inactive: 2.18
2,B2,inactive: -0.729
3,B3,inactive: -0.501
4,B4,inactive: 0.0176
5,B5,inactive: -0.634
6,B6,inactive: -0.496
7,B7,inactive: -0.282
8,B8,inactive: -0.525
9,B9,inactive: -0.524
10,B10,inactive: -0.619
11,B11,inactive: -0.0689
12,B12,inactive: -0.316

# Same assay, conditions: antigen blocked with: nothing
row,Binder,mRNA display binding score
1,B1,inactive: 0.519
2,B2,inactive: -0.468
3,B3,inactive: -0.494
4,B4,inactive: -0.164
5,B5,inactive: 0.0915
6,B6,inactive: 0.486
7,B7,inactive: -0.0746
8,B8,inactive: -0.541
9,B9,inactive: -0.425
10,B10,inactive: -0.58
11,B11,inactive: -0.431
12,B12,inactive: -0.602

# Target: Influenza A H3N2 A/Singapore/INFIMH-16-0019/2016 hemagglutinin ectodomain
# Assay: as above
# Conditions: antigen blocked with: nothing
# Experimental: as §1
row,Binder,mRNA display binding score
1,B1,inactive: -0.483
2,B2,inactive: -0.244
3,B3,inactive: -0.536
4,B4,inactive: -0.388
5,B5,inactive: -0.557
6,B6,inactive: 0.0537
7,B7,inactive: -0.17
8,B8,inactive: -0.205
9,B9,inactive: 0.0498
10,B10,inactive: -0.547
11,B11,inactive: 0.323
12,B12,inactive: -0.233

# Target: Influenza A H5N1 A/Qinghai/1A/2005 hemagglutinin ectodomain
# Assay: as above
# Conditions: antigen blocked with: 2 µM CR9114 IgG
# Experimental: as §1
row,Binder,mRNA display binding score
1,B1,inactive: 2.87
2,B2,inactive: -0.583
3,B3,inactive: -0.58
4,B4,inactive: -0.426
5,B5,inactive: -0.202
6,B6,inactive: 0.053
7,B7,inactive: -0.881
8,B8,inactive: -0.817
9,B9,inactive: -0.394
10,B10,inactive: -0.651
11,B11,inactive: -0.303
12,B12,inactive: -0.576

# Same assay, conditions: antigen blocked with: nothing
row,Binder,mRNA display binding score
1,B1,inactive: 2.94
2,B2,inactive: -0.564
3,B3,inactive: -0.482
4,B4,inactive: 0.0531
5,B5,inactive: -0.287
6,B6,inactive: -0.146
7,B7,inactive: -0.265
8,B8,inactive: -0.607
9,B9,inactive: -0.0674
10,B10,inactive: -0.508
11,B11,inactive: -0.403
12,B12,inactive: -0.516

# Target: Influenza A H7N9 A/Shanghai/2/2013 hemagglutinin ectodomain
# Assay: as above
# Conditions: antigen blocked with: 2 µM CR9114 IgG
# Experimental: as §1
row,Binder,mRNA display binding score
1,B1,inactive: 0.609
2,B2,inactive: -0.382
3,B3,inactive: -0.739
4,B4,inactive: 0.449
5,B5,inactive: 0.346
6,B6,inactive: 0.159
7,B7,inactive: -0.88
8,B8,inactive: -0.84
9,B9,inactive: 1.26
10,B10,inactive: -0.0352
11,B11,inactive: -0.142
12,B12,inactive: -0.154

# Same assay, conditions: antigen blocked with: nothing
row,Binder,mRNA display binding score
1,B1,inactive: -0.521
2,B2,inactive: -0.691
3,B3,inactive: -0.755
4,B4,inactive: -0.298
5,B5,inactive: 0.875
6,B6,inactive: 0.011
7,B7,inactive: -0.264
8,B8,inactive: -0.706
9,B9,inactive: 0
10,B10,inactive: -0.536
11,B11,inactive: -0.328
12,B12,inactive: -0.659

# Target: Influenza B/Lee/1940 hemagglutinin ectodomain
# Assay: as above
# Conditions: antigen blocked with: 2 µM CR9114 IgG
# Experimental: as §1
row,Binder,mRNA display binding score
1,B1,inactive: -0.826
2,B2,inactive: -0.666
3,B3,inactive: 0.536
4,B4,inactive: -0.0813
5,B5,inactive: -0.121
6,B6,inactive: -0.00933
7,B7,inactive: -0.104
8,B8,inactive: 0.627
9,B9,inactive: -0.0205
10,B10,inactive: -0.245
11,B11,inactive: 0.573
12,B12,inactive: 0.16

# Same assay, conditions: antigen blocked with: nothing
row,Binder,mRNA display binding score
1,B1,inactive: -0.375
2,B2,inactive: -0.263
3,B3,inactive: -0.188
4,B4,inactive: 0.0709
5,B5,inactive: -0.381
6,B6,inactive: -0.297
7,B7,inactive: -0.284
8,B8,inactive: 1.96
9,B9,inactive: -0.292
10,B10,inactive: -0.356
11,B11,inactive: -0.433
12,B12,inactive: -0.449

# Target: Influenza B/Phuket/3073/2013 hemagglutinin ectodomain
# Assay: as above
# Conditions: antigen blocked with: 2 µM CR9114 IgG
# Experimental: as §1
row,Binder,mRNA display binding score
1,B1,inactive: 0.341
2,B2,inactive: -0.272
3,B3,inactive: -0.638
4,B4,inactive: -0.0456
5,B5,inactive: -0.244
6,B6,inactive: -0.17
7,B7,inactive: -0.607
8,B8,inactive: -0.624
9,B9,inactive: -0.461
10,B10,inactive: -0.565
11,B11,inactive: -0.258
12,B12,inactive: -0.21

# Same assay, conditions: antigen blocked with: nothing
row,Binder,mRNA display binding score
1,B1,inactive: -0.206
2,B2,inactive: -0.383
3,B3,inactive: -0.288
4,B4,inactive: 0.285
5,B5,inactive: 0.081
6,B6,inactive: -0.243
7,B7,inactive: 0.311
8,B8,inactive: -0.483
9,B9,inactive: 0.44
10,B10,inactive: -0.403
11,B11,inactive: -0.247
12,B12,inactive: -0.383
